# Data: PMC5892938
# This is one part of the list. At the low end of the ranking, values are background and their order means little.
# Target: GST-SBP-SLBP (stem-loop binding protein) (UniProt Q14493)
# Assay: targeted RNA Bind-n-Seq;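 further: DESeq read counts versus GST-SBP nonspecific binding control pulldown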
# Conditions: RBNS binding buffer: 25 mM Tris pH 7.5, 150 mM KCl, 3 mM MgCl2, 0.1% Tween, 0.5 mg/mL BSA, 1 mM DTT; 27 nM protein, 750 pM RNA pool; temperature not stated; high values mean tight binding
row,Sequence,binding signal (log2 fold change)
1,GGUCACGUCUCAAUCAACUCAUUCUCCAGGGAAAACCCUGGUAAUUUCAACAGCUCGCAGUCAAG,0.25
2,GGUCACGUCUCAAUCAACUCUCUAGAGGGGGGGAAAACCCCUUUGCCCUCGAAUUCAACAGCUCGCAGUCAAG,-0.0793
3,GGUCACGUCUCAAUCAACUCUCUAGAGGGGGGGAAAACCCCUUUACCCUCCAUCUCAACAGCUCGCAGUCAAG,-0.283
4,GGUCACGUCUCAAUCAACUCAACUCCAGGAGUUUUCUCCUGCAUACUCAACAGCUCGCAGUCAAG,0.152
5,GGUCACGUCUCAAUCAACUCUAUCUCCAGGGAAACCCCUGGCAAACUCAACAGCUCGCAGUCAAG,0.323
6,GGUCACGUCUCAAUCAACUCUUCUCCAGGAGUUUUCUCCUGUAAUGUCAACAGCUCGCAGUCAAG,0.145
7,GGUCACGUCUCAAUCAACUCAUUCUCCAGGGAAACCCCUGGUUAUCUCAACAGCUCGCAGUCAAG,0.156
8,GGUCACGUCUCAAUCAACUCAUCCCCAGGAGUUUACUCCUGCAUACUCAACAGCUCGCAGUCAAG,0.295
9,GGUCACGUCUCAAUCAACUCAAUUUCAGGAGUUUACUCCUGUAUUUUCAACAGCUCGCAGUCAAG,0.11
10,GGUCACGUCUCAAUCAACUCAUCGUCAGGAGUUUUCUCCUGUUUUUUCAACAGCUCGCAGUCAAG,0.121
11,GGUCACGUCUCAAUCAACUCAAGUCCAGGAGUUUACUCCUGUAUAUUCAACAGCUCGCAGUCAAG,-0.0523
12,GGUCACGUCUCAAUCAACUCCCAAGAGGGGGGGAAAACCCCUUUGCCCUCCUAAUCAACAGCUCGCAGUCAAG,-0.133
13,GGUCACGUCUCAAUCAACUCUACUCCCAGGGAAACCCCUGGCAAUUUCAACAGCUCGCAGUCAAG,0.0963
14,GGUCACGUCUCAAUCAACUCAAUCUCAGGAGUUUGCUCCUGUUAAUUCAACAGCUCGCAGUCAAG,-0.28
15,GGUCACGUCUCAAUCAACUCUACUUCAGGAGUUUUCUCCUGCUUACUCAACAGCUCGCAGUCAAG,0.089
16,GGUCACGUCUCAAUCAACUCUCUAGAGGGGGGGAAAACCCCUUUACCCUCAACCUCAACAGCUCGCAGUCAAG,-0.312
17,GGUCACGUCUCAAUCAACUCAUACGAGGGGGGGAAAACCCCUUUACCCUCAUCCUCAACAGCUCGCAGUCAAG,-0.382
18,GGUCACGUCUCAAUCAACUCAGUCUCCAGGGAAACCCCUGGCUUAUUCAACAGCUCGCAGUCAAG,-0.151
19,GGUCACGUCUCAAUCAACUCUUUCUCCAGGGAAACCCCUGGUAAAUUCAACAGCUCGCAGUCAAG,-0.0927

row,Sequence,binding signal (log2 fold change)
1,GGUCACGUCUCAAUCAACUCUUUCUCCAGGGAAAGCCCUGGUAAACUCAACAGCUCGCAGUCAAG,0.144
2,GGUCACGUCUCAAUCAACUCCCAAGAGGGGGGGAAAACCCCUUUGCCCUCACAAUCAACAGCUCGCAGUCAAG,0.0924
3,GGUCACGUCUCAAUCAACUCUAUUUCAGGAGUUUUCUCCUGUUUUCUCAACAGCUCGCAGUCAAG,-0.0697
4,GGUCACGUCUCAAUCAACUCAUUUUCAGGAGUUUCCUCCUGUAUUCUCAACAGCUCGCAGUCAAG,0.033
5,GGUCACGUCUCAAUCAACUCAUCUCCAGGAGUUUACUCCUGUAAUUUCAACAGCUCGCAGUCAAG,-0.0734
6,GGUCACGUCUCAAUCAACUCCAUCGAGGGGGGGAAAACCCCUUUACCCUCUUUUUCAACAGCUCGCAGUCAAG,-0.0509
7,GGUCACGUCUCAAUCAACUCAUUCUCCAGGGAAAACCCUGGCUUAUUCAACAGCUCGCAGUCAAG,-0.0995
8,GGUCACGUCUCAAUCAACUCAUUCCCAGGAGUUUGCUCCUGCAAUCUCAACAGCUCGCAGUCAAG,0.182
9,GGUCACGUCUCAAUCAACUCAUUCCCCAGGGAAACCCCUGGUUUACUCAACAGCUCGCAGUCAAG,-0.152
10,GGUCACGUCUCAAUCAACUCUUUUUCCAGGGAAACCCCUGGCAUAUUCAACAGCUCGCAGUCAAG,0.215
11,GGUCACGUCUCAAUCAACUCCUUAGAGGGGGGGAAAACCCCUUUGCCCUCACUAUCAACAGCUCGCAGUCAAG,-0.135
12,GGUCACGUCUCAAUCAACUCUUUUUCCAGGGAAAACCCUGGUAUUUUCAACAGCUCGCAGUCAAG,-0.0283
13,GGUCACGUCUCAAUCAACUCAUCCCCAGGAGUUUGCUCCUGCUAUCUCAACAGCUCGCAGUCAAG,-0.0221
14,GGUCACGUCUCAAUCAACUCAACGGCAGGAGUUUUCUCCUGGAUAUUCAACAGCUCGCAGUCAAG,0.000663
15,GGUCACGUCUCAAUCAACUCAAUUUCAGGAGUUUCCUCCUGCUUACUCAACAGCUCGCAGUCAAG,-0.174
16,GGUCACGUCUCAAUCAACUCAACUUCAGGAGUUUUCUCCUGUAUACUCAACAGCUCGCAGUCAAG,0.0253
17,GGUCACGUCUCAAUCAACUCACAAGAGGGGGGGAAAACCCCUUUGCCCUCAUCUUCAACAGCUCGCAGUCAAG,-0.111
18,GGUCACGUCUCAAUCAACUCAAUUUCCAGGGAAAACCCUGGUAUAUUCAACAGCUCGCAGUCAAG,-0.16
